Here are results for 5 molecules from publication PMC5799093, “Proceedings of Réanimation 2018, the French Intensive Care Society International Congress” (Annals of Intensive Care, 2018).

One test relates to tramadol-overdosed rats. The test is described as follows: Antidotes for tramadol overdose: seizures, plethysmography, sedation, EEG. Conditions: 75 mg kg IP tramadol; diazepam 1.77 mg kg IP; naloxone 2 mg kg IV bolus then 4 mg kg h.
For test [1], the system named is tramadol-induced seizures. Conditions: 75 mg kg tramadol IP; 'by contrast' = seizures not abolished.

`CN1C(=O)CN=C(c2ccccc2)c2cc(Cl)ccc21` [diazepam]: the tramadol-induced seizures entry in the test on tramadol-overdosed rats is “abolished seizures”.

For the molecule `C=CCN1CC[C@]23c4c5ccc(O)c4O[C@H]2C(=O)CC[C@@]3(O)[C@H]1C5` [naloxone], the “tramadol-induced seizures after pretreatment” value in test [1] was “by contrast”. The tramadol-induced seizures result with tramadol-overdosed rats is “significantly increased seizures”.

As to `CC(C)(C(=O)O)c1ccc(C(O)CCCN2CCC(C(O)(c3ccccc3)c3ccccc3)CC2)cc1` (stereo not drawn) [fexofenadine], the “tramadol-induced seizures after pretreatment” value in test [1] was “by contrast”.

Take `CN1CCC(=C2c3ccccc3C=Cc3ccccc32)CC1` [cyproheptadine]: in test [1], the “tramadol-induced seizures after pretreatment” value is given as “by contrast”.

Consider `COc1cccc(C2(O)CCCCC2CN(C)C)c1` (stereo not drawn) [tramadol], for which the tramadol-induced seizures result in the test with tramadol-overdosed rats was “electro-clinical seizures as soon as 5 min after the injection”.
